Source: the supplement of paper PMC3334620
Over roughly 33,000 sequences, “E-score (-0.5 to 0.5)” has its median near -0.054; the highest 2% begin near 0.35. The list shows a part of the results.

target: T1, Stb5 (UniProt P38699); experiment: PBM E-score (8-mer binding enrichment) (E-score (-0.5 to 0.5)); higher = stronger / more preferred TF binding; most listed sequences are background and not binding sites; settings: protein concentration: 200 nM; construct: GST-full length
T1 sequence: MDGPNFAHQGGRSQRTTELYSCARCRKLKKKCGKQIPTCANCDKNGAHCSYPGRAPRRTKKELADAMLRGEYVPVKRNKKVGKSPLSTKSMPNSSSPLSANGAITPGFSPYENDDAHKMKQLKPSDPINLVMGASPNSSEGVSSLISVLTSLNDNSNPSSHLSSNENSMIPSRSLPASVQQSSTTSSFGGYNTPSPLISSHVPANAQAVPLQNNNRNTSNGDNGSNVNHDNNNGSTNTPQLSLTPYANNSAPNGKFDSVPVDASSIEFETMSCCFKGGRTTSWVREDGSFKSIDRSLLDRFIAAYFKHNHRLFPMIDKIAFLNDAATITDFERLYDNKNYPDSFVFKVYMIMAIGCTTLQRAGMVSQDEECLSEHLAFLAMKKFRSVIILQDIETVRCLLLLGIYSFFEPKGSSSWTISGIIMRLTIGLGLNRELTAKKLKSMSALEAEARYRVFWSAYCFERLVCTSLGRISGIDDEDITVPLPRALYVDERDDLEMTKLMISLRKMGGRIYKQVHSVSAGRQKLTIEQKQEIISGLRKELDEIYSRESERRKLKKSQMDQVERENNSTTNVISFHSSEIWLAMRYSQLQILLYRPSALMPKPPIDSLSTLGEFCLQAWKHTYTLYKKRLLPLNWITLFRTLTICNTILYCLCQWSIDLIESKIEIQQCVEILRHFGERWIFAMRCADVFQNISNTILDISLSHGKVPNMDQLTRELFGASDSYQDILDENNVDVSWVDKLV
How it was run: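 Yeast transcription factors carrying a GST tag, as full-length proteins or DNA-binding domains, were produced by PURExpress in vitro transcription/translation. About 100-200 nM protein was applied to universal all-10-mer Agilent arrays, double-stranded by primer extension on fresh or once-stripped slides. Bound protein was detected with fluorescent anti-GST, and scans were normalised with masliner. The Universal PBM Analysis Suite gave each ungapped eight-base word, pooled with its reverse complement, an E-score, a modified Wilcoxon-Mann-Whitney statistic.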

Going from CGCCTAGA to GGGAAGTA, the “PBM E-score” value rises from -0.0259 to 0.0165.

First: GGTCCTAA
Second: TCCCCGAA
The “PBM E-score” value of the first is higher: 0.3 for the first, 0.266 for the second.

Compared with ACGACTCA, CAATCGCA is higher in “PBM E-score” value: -0.24 for the first, -0.0763 for the second.

First: CGCCCACG
Second: CCGCTGTA
The “PBM E-score” value of the first is lower: 0.134 for the first, 0.295 for the second.

First: GACGCATC
Second: GTCACTTA
The “PBM E-score” value of the first is lower: -0.126 for the first, -0.02 for the second.

Compared with TTAATTAA, ATGGGCCG is higher in “PBM E-score” value: -0.00647 for the first, 0.16 for the second.

Compared with GCAGTCGC, GGCCGTGA is higher in “PBM E-score” value: -0.122 for the first, 0.101 for the second.

Compared with ATAGGGGA, ATATGCGC is higher in “PBM E-score” value: -0.166 for the first, 0.0554 for the second.

First: ATATCATA
Second: GACGTTGC
The “PBM E-score” value of the first is higher: 0.0356 for the first, -0.0822 for the second.

Going from ATGAGGCA to CTTATAGC, the “PBM E-score” value rises from -0.24 to 0.00833.

Compared with CATCCAAC, AGGTACCC is lower in “PBM E-score” value: -0.126 for the first, -0.294 for the second.

Going from AAGTCCCC to CATAGTAG, the “PBM E-score” value falls from -0.0331 to -0.17.

First: CTATGAGC
Second: TAGCTAGA
The “PBM E-score” value of the first is higher: -0.125 for the first, -0.148 for the second.

Compared with AAGTACGG, AACCCGGG is higher in “PBM E-score” value: 0.165 for the first, 0.262 for the second.

Compared with GAGGGTGA, AATGCCGC is higher in “PBM E-score” value: -0.139 for the first, 0.448 for the second.

Going from CGGCACCG to GAACAACC, the “PBM E-score” value falls from 0.342 to -0.0126.

Going from CACGACTC to CAAACTTG, the “PBM E-score” value rises from -0.137 to 0.0371.

Going from CAATGCTC to ATTGTAAG, the “PBM E-score” value rises from -0.22 to -0.108.

Going from ACTACAGG to CAGAGGGC, the “PBM E-score” value rises from -0.0347 to 0.0204.

Compared with ACTCGGAC, ATGACGAA is lower in “PBM E-score” value: 0.194 for the first, -0.0403 for the second.

First: CTACCAGC
Second: ACTAAGCT
The “PBM E-score” value of the first is higher: -0.113 for the first, -0.175 for the second.

Compared with CACCACCG, AGACTGCC is lower in “PBM E-score” value: 0.21 for the first, -0.0891 for the second.

Going from AGCCAGTC to CCGTGGGC, the “PBM E-score” value rises from -0.14 to 0.248.

Compared with AGAAGCGG, AGTATGAA is lower in “PBM E-score” value: 0.316 for the first, -0.0275 for the second.

First: AGTTTGAG
Second: AGAATGAA
The “PBM E-score” value of the first is higher: 0.0948 for the first, -0.181 for the second.

Going from TAGTTGGA to AGACGGTA, the “PBM E-score” value rises from 0.104 to 0.238.

First: TCGGCTAA
Second: AACCCGTT
The “PBM E-score” value of the first is lower: -0.095 for the first, 0.213 for the second.

First: GCTCAGAC
Second: ACTCGAGT
The “PBM E-score” value of the first is higher: -0.0986 for the first, -0.116 for the second.

First: CACCCAGC
Second: AAAACGGG
The “PBM E-score” value of the first is lower: 0.051 for the first, 0.29 for the second.

Going from AGGCAGCC to AATTGGGG, the “PBM E-score” value rises from -0.25 to -0.101.

First: GAAGCTCA
Second: CGCCTCCC
The “PBM E-score” value of the first is lower: -0.22 for the first, -0.135 for the second.

Going from GAAGAGCA to ACGCGCAC, the “PBM E-score” value rises from -0.204 to -0.102.

Compared with CTTGCTTA, ATCCACCA is lower in “PBM E-score” value: -0.245 for the first, -0.288 for the second.

Going from CAAGAGCA to CCACGCAA, the “PBM E-score” value rises from -0.165 to -0.0134.

Going from GAAAAGGC to AACCCGGT, the “PBM E-score” value rises from 0.0848 to 0.29.

Compared with ATATGCCA, TACACCGA is higher in “PBM E-score” value: -0.0131 for the first, 0.414 for the second.

Compared with TCAACAAA, GTGCCTGA is lower in “PBM E-score” value: 0.0749 for the first, -0.0161 for the second.

Going from AACACATA to ACACGGTA, the “PBM E-score” value rises from -0.222 to 0.144.

Going from ACAACGGT to ATATGGGC, the “PBM E-score” value falls from 0.28 to 0.0563.

Going from TAGCTGCA to AAACGATG, the “PBM E-score” value rises from -0.191 to -0.0501.

First: CCACCGAC
Second: AATCCTGC
The “PBM E-score” value of the first is higher: 0.346 for the first, -0.16 for the second.

Going from TACAGATA to AAAGAGAT, the “PBM E-score” value falls from 0.048 to -0.225.

Going from ATTCGTAA to GATACCGC, the “PBM E-score” value rises from -0.0579 to 0.35.

Compared with ATCATGTA, CGTCACAA is higher in “PBM E-score” value: -0.236 for the first, 0.109 for the second.

First: CGAGACCA
Second: CAGTTAGA
The “PBM E-score” value of the first is lower: -0.245 for the first, -0.165 for the second.

Compared with AAGAACTC, GCCTGAGA is higher in “PBM E-score” value: -0.167 for the first, -0.113 for the second.

Compared with ATGTCATG, TATACACA is higher in “PBM E-score” value: -0.0574 for the first, -0.0461 for the second.

First: GCAAGCAC
Second: ATTCTATA
The “PBM E-score” value of the first is lower: -0.205 for the first, 0.00785 for the second.

First: TCCTATCA
Second: ATACGCTG
The “PBM E-score” value of the first is higher: 0.129 for the first, -0.0604 for the second.

Compared with CTAAGGTC, GGACGAGA is lower in “PBM E-score” value: -0.0598 for the first, -0.0868 for the second.

Going from CATGGGCG to CTACAAGC, the “PBM E-score” value falls from 0.114 to -0.0669.

First: ACAAAATG
Second: GGTAGCGA
The “PBM E-score” value of the first is higher: -0.0269 for the first, -0.144 for the second.

Compared with CTCGTTCC, CGGATACA is higher in “PBM E-score” value: 0.0214 for the first, 0.251 for the second.

Compared with AATTGACG, CCTTAACC is lower in “PBM E-score” value: 0.0476 for the first, -0.128 for the second.

Going from CCAGAGCA to ACGATTAC, the “PBM E-score” value falls from -0.109 to -0.161.

Going from GATTAGGC to CATGGCCA, the “PBM E-score” value falls from -0.0563 to -0.147.

First: CAGTACCA
Second: AGATCCTG
The “PBM E-score” value of the first is higher: -0.218 for the first, -0.271 for the second.

Going from CAGTGGAA to CCGCATCA, the “PBM E-score” value rises from -0.144 to 0.155.

First: GTTACGCA
Second: ATGACACA
The “PBM E-score” value of the first is lower: -0.185 for the first, -0.0801 for the second.

Compared with CTTCCTCA, AATTGATA is lower in “PBM E-score” value: -0.135 for the first, -0.154 for the second.

Going from CCCCTCTC to ATGATCGC, the “PBM E-score” value rises from -0.226 to 0.0541.

Compared with AGCGGGAA, ATACTCCA is lower in “PBM E-score” value: 0.357 for the first, -0.199 for the second.

Compared with ACCCTGTG, CCCGGTTA is higher in “PBM E-score” value: -0.19 for the first, 0.313 for the second.

Compared with GCAGCCAC, CGAACTCA is lower in “PBM E-score” value: -0.00795 for the first, -0.12 for the second.

Going from AAACCAGT to CGGCCGCA, the “PBM E-score” value rises from -0.275 to 0.235.

Compared with CAATCTCA, GCGGTTCC is higher in “PBM E-score” value: -0.135 for the first, 0.168 for the second.

First: AAACGCGT
Second: AACTCCAT
The “PBM E-score” value of the first is lower: -0.172 for the first, 0.144 for the second.

Going from GTGATTAA to GATTCTAC, the “PBM E-score” value falls from 0.132 to 0.0624.

First: ACGGAATC
Second: AAAAGTCG
The “PBM E-score” value of the first is lower: 0.0819 for the first, 0.109 for the second.

Compared with TCGAGAGA, GCACGACA is higher in “PBM E-score” value: -0.156 for the first, -0.0307 for the second.

Going from AACTGGCG to CTACCTAG, the “PBM E-score” value falls from -0.0206 to -0.0939.

Going from AAGGTAAT to CGAGGGAC, the “PBM E-score” value falls from 0.0485 to -0.0978.

Going from GATGTCGA to CTAAGCCC, the “PBM E-score” value rises from -0.144 to 0.324.

Going from TAGGAGCA to AATATTTC, the “PBM E-score” value rises from -0.24 to 0.0341.

First: AGTTTGCG
Second: CGATCGTA
The “PBM E-score” value of the first is lower: -0.0438 for the first, 0.0283 for the second.

First: AAGAATGG
Second: CTGCCCTA
The “PBM E-score” value of the first is higher: -0.0899 for the first, -0.218 for the second.

First: CGGGGTGC
Second: GAAGAAGA
The “PBM E-score” value of the first is higher: 0.215 for the first, -0.136 for the second.

Going from GAGATGTA to CTGCTGTA, the “PBM E-score” value falls from -0.0314 to -0.103.

Going from CCTGCTTA to AAACTGCT, the “PBM E-score” value falls from -0.137 to -0.227.

Going from CTTGTTAA to AACTGCCT, the “PBM E-score” value falls from 0.101 to -0.288.

First: CGTACGAA
Second: ATCCCCTC
The “PBM E-score” value of the first is lower: -0.0979 for the first, -0.0806 for the second.

Going from AAACTGTC to ACGAACTA, the “PBM E-score” value falls from -0.213 to -0.222.

First: CTCTTCAA
Second: AAACTGAC
The “PBM E-score” value of the first is lower: -0.139 for the first, -0.0692 for the second.

First: GATTTTCC
Second: ACTAATAG
The “PBM E-score” value of the first is higher: 0.0954 for the first, -0.0202 for the second.

First: ATGGCGAC
Second: GTACTGTA
The “PBM E-score” value of the first is lower: -0.141 for the first, -0.123 for the second.

First: TCGGTCCA
Second: AGCGAAGA
The “PBM E-score” value of the first is higher: 0.108 for the first, -0.143 for the second.
